Measured values from PubChem BioAssay (Tox21).
Where “and” joins values, the source holds several entries; their conditions need not be identical. Equal entries are not always repeated. This list was built around the results that the source calls inconclusive (neither active nor inactive); the mix of calls is not that of the screen. For some assays here: Where the call is inconclusive, the potency comes from a doubtful curve fit. Calls of active or inactive are those of the source. Unless noted, calls follow the shape of the dose curve; as a rule, active = well fitted curve in the direction sought with a large enough effect in the repeat runs; inconclusive = weak or mixed curves; inactive = no such curve, though single readings can be large; an effect the other way counts as inactive or inconclusive.

Legend:
[1] = qHTS assay to identify small molecule antagonists of the peroxisome proliferator-activated receptor gamma (PPARg) signaling pathway - cell viability counter screen (AID 743194); conditions: PPARg-bla HEK293H viability, CellTiter-Glo luminescence, 17 h, co-treated with 50 nM rosiglitazone; activity change, negative = cytotoxicity: at 62.6 µM (top of the series) unless noted; also: nearly all actives have a fitted effect of over 55% in size; also: potency is read from the fitted curve at half-maximal effect
Summary of the method: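 Cytotoxicity counter screen in PPARg-bla HEK293H cells, same wells as reporter assay. Compounds plus 50 nM rosiglitazone (final) for 17 h at 37 C, then viability read by CellTiter-Glo luminescence.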

[2] = qHTS assay for small molecule agonists of the antioxidant response element (ARE) signaling pathway (AID 743202; active = well fitted activation curve with a large enough effect in the signal ratio in the repeat runs, not every such curve was filed as active; inconclusive = weak or mixed curves, or effect the other way; inactive = no such curve, though single readings can be large or run the other way; the % refers to the signal ratio; also: potency is read from the fitted curve at half-maximal effect; as to activation: % is scaled to controls: 0 for no effect and ±100 for the full control effect); conditions: HepG2 ARE-bla reporter, beta-lactamase FRET, 16 h; activation: at 73.3 µM (top of the series) unless noted
Summary of the method: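 ARE-bla HepG2 cells (beta-lactamase reporter under the antioxidant response element), plated 5 hours, then exposed to compounds 16 hours at 37 C. LiveBLAzer B/G FRET substrate added for 2 hours at room temperature; fluorescence intensity read.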

[3] = qHTS assay for small molecule activators of the heat shock response signaling pathway (AID 743210; active = well fitted activation curve with a large enough effect in the signal ratio in the repeat runs, with a control signal flat, not every such curve was filed as active; inconclusive = weak or mixed curves; the % refers to the signal ratio; also: % is scaled to controls: 0 for no effect and ±100 for the full control effect); conditions: HeLa HSE-bla reporter, beta-lactamase ratio, 5 h; activation: at 62.6 µM (top of the series) unless noted
Summary of the method: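 HSE-bla HeLa cells (beta-lactamase reporter under heat shock response elements), plated overnight, then exposed to compounds 5 h at 37 C; LiveBLAzer B/G FRET substrate added, 2.5 h at room temperature, fluorescence intensity read.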

[4] = target: Peroxisome proliferator-activated receptor gamma (Homo sapiens) (UniProt P37231); assay: qHTS assay to identify small molecule antagonists of the peroxisome proliferator-activated receptor gamma (PPARg) signaling pathway (AID 743191; calls by dose curve; also: nearly all actives have a fitted effect of over 30% in size; also: potency is read from the fitted curve at half-maximal effect); conditions: HEK293H PPARg-UAS-bla, beta-lactamase ratio, antagonist, 17 h; ratio activity, negative = inhibition: at 62.6 µM (top of the series) unless noted
Summary of the method: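 GeneBLAzer PPARg UAS-bla HEK293H cells, 5 h post-plating, exposed to compounds 17 h at 37C. LiveBLAzer B/G FRET substrate added for 1 h at room temperature; beta-lactamase reporter read by fluorescence intensity.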

[5] = qHTS assay to identify small molecule antagonists of the peroxisome proliferator-activated receptor delta (PPARd) signaling pathway - cell viability counter screen (AID 743213); conditions: PPARd-bla HEK293H viability, CellTiter-Glo luminescence, 17 h; viability change, negative = cytotoxic: at 62 µM (top of the series) unless noted; also: potency is read from the fitted curve at half-maximal effect; nearly all actives have a fitted effect of over 50% in size
Summary of the method: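 In this counter screen, HEK293H cells carrying a UAS-beta-lactamase reporter are co-treated with test compounds and 300 nM L165041 (final) for 17 h at 37 C; cell viability is quantified by CellTiter-Glo luminescence.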

[6] = target: Vitamin D3 receptor (Homo sapiens) (UniProt P11473); assay: qHTS assay to identify small molecule antagonists of the vitamin D receptor (VDR) signaling pathway (AID 743223; active = well fitted inhibition curve with a large enough effect in the signal ratio in the repeat runs, not every such curve was filed as active; inconclusive = weak or mixed curves, or effect the other way; inactive = no such curve, though single readings can be large or run the other way; the % refers to the signal ratio; also: potency is read from the fitted curve at half-maximal effect; as to activity change, negative = inhibition: % is scaled to controls: 0 for no effect and ±100 for the full control effect); conditions: VDR-UAS-bla HEK293T, beta-lactamase FRET ratio, 16 h; activity change, negative = inhibition: at 61 µM (top of the series) unless noted
Summary of the method: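 Reporter line VDR-bla; stimulus 1alpha,25-(OH)2 vitamin D3, 3 nM final; compound co-addition, 16 h 37C/5% CO2; LiveBLAzer B/G substrate 2 h RT; fluorescence intensity.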

[7] = qHTS assay for small molecule agonists of the antioxidant response element (ARE) signaling pathway - cell viability counter screen (AID 743203; calls by dose curve; also: nearly all actives have a fitted effect of over 55% in size; also: potency is read from the fitted curve at half-maximal effect; as to viability change, negative = cytotoxic: % is scaled to controls: 0 for no effect and ±100 for the full control effect); conditions: ARE-bla HepG2 viability, CellTiter-Glo luminescence, 16 h; viability change, negative = cytotoxic: at 73.3 µM (top of the series)
Summary of the method: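 CellSensor ARE-bla HepG2 cells, 2,000 per well, rested 5 hrs at 37C/5% CO2, then exposed to compound in DMSO for 16 hrs; viability read as CellTiter-Glo luminescence after 30 min at room temperature, in the reporter wells.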

[8] = qHTS assay to identify small molecule agonists of the farnesoid-X-receptor (FXR) signaling pathway - cell viability counter screen (AID 743218); conditions: FXR-bla HEK293T viability, CellTiter-Glo luminescence, 16 h; viability change, negative = cytotoxic: at 62.6 µM (top of the series) unless noted; also: nearly all actives have a fitted effect of over 45% in size; also: potency is read from the fitted curve at half-maximal effect
Summary of the method: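 FXR-UAS-bla HEK 293T cells, plated 5 h at 37 C, were exposed to compounds for 16 h at 37 C. CellTiter-Glo was then added to the same wells as the bla readout; luminescence read after 30 min at room temperature.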

[9] = target: Vitamin D3 receptor (Homo sapiens) (UniProt P11473); assay: qHTS assay to identify small molecule agonists of the vitamin D receptor (VDR) signaling pathway (AID 743222; calls by dose curve; also: potency is read from the fitted curve at half-maximal effect); conditions: HEK293T VDR-UAS-bla, beta-lactamase FRET ratio, 16 h; activation: at 63.5 µM (top of the series) unless noted
Summary of the method: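 VDR-bla cells were plated 4 h at 37C/5% CO2, then exposed to compounds in DMSO for 16 h. After LiveBLAzer B/G FRET substrate addition and 2 h at room temperature, beta-lactamase reporter fluorescence was read.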

[10] = qHTS assay to identify small molecule agonists of the vitamin D receptor (VDR) signaling pathway - cell viability counter screen (AID 743224); conditions: VDR-bla HEK293T viability, CellTiter-Glo luminescence, 16 h; activity change, negative = cytotoxicity: at 62.6 µM (top of the series); also: potency is read from the fitted curve at half-maximal effect; nearly all actives have a fitted effect of over 50% in size
Summary of the method: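 VDR-bla cells were preincubated 4 h at 37C/5% CO2, then exposed to compounds for 16 h. After the 2 h room-temperature bla FRET read, CellTiter-Glo was added to the same wells and luminescence read after 30 min.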

[11] = qHTS assay for small molecule activators of the heat shock response signaling pathway - cell viability counter screen (AID 743209); conditions: HSE-bla HeLa viability, CellTiter-Glo luminescence, 5 h; activity change, negative = cytotoxicity: at 62.6 µM (top of the series) unless noted; also: nearly all actives have a fitted effect of over 50% in size; also: potency is read from the fitted curve at half-maximal effect
Summary of the method: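 CellSensor HSE-bla HeLa cells, plated overnight at 37 C/5% CO2, were exposed to compounds in DMSO for 5 h at 37 C. Viability was then read in the same wells by CellTiter-Glo luminescence after 30 min at room temperature.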

[12] = target: Peroxisome proliferator-activated receptor delta (Homo sapiens) (UniProt Q03181); assay: qHTS assay to identify small molecule antagonists of the peroxisome proliferator-activated receptor delta (PPARd) signaling pathway (AID 743215; active = well fitted inhibition curve with a large enough effect in the signal ratio in the repeat runs, not every such curve was filed as active; inconclusive = weak or mixed curves, or effect the other way; inactive = no such curve, though single readings can be large or run the other way; the % refers to the signal ratio;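 also: cells stimulated with agonist L165041 at 300 nM final during compound exposure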; also: potency is read from the fitted curve at half-maximal effect); conditions: HEK293H PPARd-UAS-bla, beta-lactamase FRET ratio, antagonist, 17 h; ratio activity, negative = inhibition: at 62 µM (top of the series) unless noted
Summary of the method: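 PPARd UAS-bla HEK293H cells were pre-incubated 5 h at 37 C, then given test compounds in DMSO plus agonist L165041 (300 nM final). After 17 h at 37 C, beta-lactamase FRET substrate was added; fluorescence read after 2 h at room temperature.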

[13] = target: Bile acid receptor (Homo sapiens) (UniProt Q96RI1); assay: qHTS assay to identify small molecule antagonists of the farnesoid-X-receptor (FXR) signaling pathway (AID 743217; active = well fitted inhibition curve with a large enough effect in the signal ratio in the repeat runs, not every such curve was filed as active; inconclusive = weak or mixed curves, or effect the other way; inactive = no such curve, though single readings can be large or run the other way; the % refers to the signal ratio; also: potency is read from the fitted curve at half-maximal effect); conditions: HEK293T FXR-UAS-bla, beta-lactamase ratio, CDCA-stimulated, 16 h; activity change, negative = inhibition: at 62.6 µM (top of the series) unless noted
Summary of the method: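 FXR-UAS-bla HEK 293T cells pre-incubated 5 h at 37 °C, then exposed to compounds with chenodeoxycholic acid (50 uM final) for 16 h at 37 °C. Beta-lactamase reporter read by LiveBLAzer B/G FRET substrate fluorescence after 2 h at room temperature.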

[14] = target: Bile acid receptor (Homo sapiens) (UniProt Q96RI1); assay: qHTS assay to identify small molecule agonists of the farnesoid-X-receptor (FXR) signaling pathway (AID 743220; active = well fitted activation curve with a large enough effect in the signal ratio in the repeat runs, not every such curve was filed as active; inconclusive = weak or mixed curves, or effect the other way; the % refers to the signal ratio; also: potency is read from the fitted curve at half-maximal effect); conditions: HEK293T FXR-UAS-bla, beta-lactamase FRET ratio, 16 h; activation: at 62.6 µM (top of the series) unless noted
Summary of the method: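 Beta-lactamase reporter under UAS control in GeneBLAzer FXR HEK 293T cells (5000/well) measured with LiveBLAzer FRET substrate after 2 h at room temperature. Compound exposure lasted 16 h at 37C.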

[15] = qHTS assay to identify small molecule antagonists of the farnesoid-X-receptor (FXR) signaling pathway - cell viability counter screen (AID 743221; active = well fitted cell-killing curve with a large enough effect in the repeat runs, not every such curve was filed as active; inconclusive = weak or mixed curves, or effect the other way; inactive = no such curve, though single readings can be large or run the other way; also: potency is read from the fitted curve at half-maximal effect; nearly all actives have a fitted effect of over 50% in size); conditions: FXR-bla HEK293T viability, CellTiter-Glo luminescence, 16 h; activity change, negative = cytotoxicity: at 62.6 µM (top of the series) unless noted
Summary of the method: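 After a 5 h settling period, FXR-bla HEK 293T cells receive compound and chenodeoxycholic acid (50 uM final) and incubate 16 h at 37 C; CellTiter-Glo luminescence, read after 30 min at room temperature, reports cell viability.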

[16] = qHTS assay to identify small molecule agonists of the peroxisome proliferator-activated receptor delta (PPARd) signaling pathway - cell viability counter screen (AID 743211); conditions: PPARd-bla HEK293H viability, CellTiter-Glo luminescence, 17 h; activity change, negative = cytotoxicity: at 62.6 µM (top of the series) unless noted; also: potency is read from the fitted curve at half-maximal effect; nearly all actives have a fitted effect of over 55% in size
Summary of the method: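 qHTS cell viability: PPARd-bla HEK293H; 17 h cpd, 37C; CellTiter-Glo, luminescence at 30 min RT.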
Tags tell the direction and shape of the fitted curve or compound fluorescence and quenching.

UniProt Q03181, sequence (Q03181 whole entry, looked up): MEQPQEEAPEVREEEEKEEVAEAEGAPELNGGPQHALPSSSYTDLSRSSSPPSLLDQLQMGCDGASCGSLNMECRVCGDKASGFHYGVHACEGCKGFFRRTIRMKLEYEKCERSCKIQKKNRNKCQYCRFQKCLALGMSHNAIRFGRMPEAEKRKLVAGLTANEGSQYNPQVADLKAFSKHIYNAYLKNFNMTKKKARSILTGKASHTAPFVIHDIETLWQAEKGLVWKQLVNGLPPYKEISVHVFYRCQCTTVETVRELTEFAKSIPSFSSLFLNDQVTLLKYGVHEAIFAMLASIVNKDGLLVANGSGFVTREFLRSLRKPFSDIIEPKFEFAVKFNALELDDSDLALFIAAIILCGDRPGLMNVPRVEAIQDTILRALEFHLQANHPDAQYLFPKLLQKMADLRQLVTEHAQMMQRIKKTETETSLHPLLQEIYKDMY
UniProt P11473, sequence (P11473 whole entry, looked up): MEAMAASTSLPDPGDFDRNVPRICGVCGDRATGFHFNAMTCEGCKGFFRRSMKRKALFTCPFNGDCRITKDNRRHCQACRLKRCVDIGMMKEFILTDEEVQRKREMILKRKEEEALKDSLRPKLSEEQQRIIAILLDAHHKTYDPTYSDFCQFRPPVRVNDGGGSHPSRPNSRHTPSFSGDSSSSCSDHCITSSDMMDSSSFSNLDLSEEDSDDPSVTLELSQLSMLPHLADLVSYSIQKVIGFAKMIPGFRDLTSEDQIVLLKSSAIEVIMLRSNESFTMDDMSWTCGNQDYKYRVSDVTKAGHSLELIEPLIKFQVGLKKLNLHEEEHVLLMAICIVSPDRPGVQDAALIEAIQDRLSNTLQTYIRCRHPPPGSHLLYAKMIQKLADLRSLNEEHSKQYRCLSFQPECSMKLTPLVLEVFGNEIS
UniProt P37231, sequence (P37231 whole entry, looked up): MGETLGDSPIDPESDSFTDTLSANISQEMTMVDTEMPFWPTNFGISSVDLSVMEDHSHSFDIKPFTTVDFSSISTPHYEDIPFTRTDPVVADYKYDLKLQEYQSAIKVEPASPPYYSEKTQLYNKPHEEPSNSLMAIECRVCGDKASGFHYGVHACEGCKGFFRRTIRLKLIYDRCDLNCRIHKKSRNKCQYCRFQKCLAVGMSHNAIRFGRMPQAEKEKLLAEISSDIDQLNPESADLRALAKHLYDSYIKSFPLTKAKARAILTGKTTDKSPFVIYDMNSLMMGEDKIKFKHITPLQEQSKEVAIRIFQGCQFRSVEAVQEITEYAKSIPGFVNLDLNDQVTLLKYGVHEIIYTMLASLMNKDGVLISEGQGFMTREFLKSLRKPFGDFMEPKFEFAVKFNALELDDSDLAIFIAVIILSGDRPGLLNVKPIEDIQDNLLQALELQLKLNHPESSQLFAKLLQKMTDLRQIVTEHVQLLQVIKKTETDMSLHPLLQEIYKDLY
UniProt Q96RI1, sequence (Q96RI1 whole entry, looked up): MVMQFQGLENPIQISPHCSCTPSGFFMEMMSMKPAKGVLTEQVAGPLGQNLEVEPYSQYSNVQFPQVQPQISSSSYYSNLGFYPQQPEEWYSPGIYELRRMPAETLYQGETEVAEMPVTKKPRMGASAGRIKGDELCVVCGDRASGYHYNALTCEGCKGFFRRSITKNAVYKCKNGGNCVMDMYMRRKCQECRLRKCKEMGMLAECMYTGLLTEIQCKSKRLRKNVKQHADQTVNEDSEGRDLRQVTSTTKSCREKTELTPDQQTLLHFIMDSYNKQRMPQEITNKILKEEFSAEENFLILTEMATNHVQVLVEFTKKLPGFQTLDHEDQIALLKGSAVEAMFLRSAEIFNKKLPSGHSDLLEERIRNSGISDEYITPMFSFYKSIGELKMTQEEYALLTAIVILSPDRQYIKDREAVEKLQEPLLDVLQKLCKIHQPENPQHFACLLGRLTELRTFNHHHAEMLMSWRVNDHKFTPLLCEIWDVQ

In the case of Nc1ccn([C@H]2CS[C@@H](CO)O2)c(=O)n1, the Potency [1] is reported as inconclusive: 0.0155 µM [cytotoxic, full curve, poor fit], the activation [2] is reported as inconclusive: 24.3% and the Potency [3] is reported as “inactive”.
For CC(=O)OC(C)c1ccccc1 (stereo unspecified), the Potency [4] was inconclusive: 61.6 µM [activator, partial curve, poor fit], the Potency [5] was inconclusive: 12.3 µM [cytotoxic, single point] and the activity change, negative = inhibition [6] was inconclusive: 1.54%.
With COc1cccc(N)c1 the Potency [1] was inconclusive: 0.0553 µM [cytotoxic, full curve], the Potency [2] was inconclusive: 21.8 µM [rising, full curve] and the Potency [7] was “inactive”. The Potency [5] was inconclusive: 55.3 µM [cytotoxic, single point], the Potency [8] was inconclusive: 9.84 µM [cytotoxic, full curve] and the Potency [9] was inconclusive: 22 µM [rising, partial curve, poor fit]. For the same molecule, the Potency [6] was “inactive” and the Potency [10] was inconclusive: 6.97 µM [cytotoxic].
In the case of CC[N+](CC)(CCNC(=O)C(=O)NCC[N+](CC)(CC)Cc1ccccc1Cl)Cc1ccccc1Cl, the Potency [1] is reported as inconclusive: 5.31 µM [rising, partial curve, poor fit], the Potency [2] is reported as “inactive” and the Potency [7] is reported as inconclusive: 0.119 µM [cytotoxic, single point]. For the same molecule, the activity change, negative = cytotoxicity [11] was inconclusive: -0.224% [cytotoxic] and the Potency [12] was “inactive”.
For CN1CCN(CCCN2c3ccccc3Sc3ccc(S(=O)(=O)N(C)C)cc32)CC1, the Potency [1] was inconclusive: 29.8 µM [cytotoxic], the activation [2] was inconclusive: 0.0318% and the Potency [11] was inconclusive: 0.422 µM [cytotoxic, partial curve, poor fit]. The Potency [5] was active: 26.6 µM, the Potency [13] was inconclusive: 16.8 µM [rising, partial curve, poor fit] and the Potency [8] was active: 29.8 µM. The Potency [14] was inconclusive: 26.6 µM [rising, partial curve, poor fit], the Potency [15] was inconclusive: 23.7 µM [falling, partial curve] and the Potency [9] was inconclusive: 18.8 µM [rising, partial curve]. The Potency [6] was inconclusive: 26.8 µM and the Potency [10] was inconclusive: 29.8 µM [cytotoxic, partial curve].
With Cc1[nH]nc2c1N=C(c1ccccc1Cl)c1cc([N+](=O)[O-])ccc1N2 the Potency [1] was active: 38.9 µM, the Potency [2] was inconclusive: 61.1 µM [falling, partial curve] and the Potency [11] was active: 15.5 µM. For the same molecule, the Potency [16] was active: 5.49 µM, the Potency [5] was inconclusive: 7.76 µM [cytotoxic] and the Potency [12] was active: 24.5 µM. For the same molecule, the activity change, negative = inhibition [13] was inconclusive: -21.8%, the Potency [8] was active: 24.5 µM and the activation [14] was inconclusive: 10.1%. For the same molecule, the activation [9] was inconclusive: -9.47%.
For Cc1oc(=O)oc1COC(=O)[C@@H]1N2C(=O)[C@@H](NC(=O)[C@H](N)c3ccccc3)[C@H]2SC1(C)C, the Potency [4] was “inactive”, the Potency [12] was “inactive” and the Potency [13] was “inactive”. For the same molecule, the activity change, negative = inhibition [6] was inconclusive: 3.28%.
In the case of N#CCCN(CCO)CCO, the Potency [1] is reported as “inactive”, the Potency [2] is reported as inconclusive: 30.6 µM and the Potency [3] is reported as “inactive”. For the same molecule, the Potency [16] was inconclusive: 49 µM [cytotoxic, partial curve].
For OCCOCC#CCOCCO, the Potency [4] was “inactive”, the ratio activity, negative = inhibition [12] was inconclusive: -4.76% and the Potency [15] was inconclusive: 61.6 µM [falling, single point]. The activity change, negative = inhibition [6] was inconclusive: 18%.
For CCCNC(C)C(=O)Nc1ccccc1C (stereo unspecified), the Potency [4] was “inactive”, the Potency [8] was inconclusive: 0.211 µM [rising, partial curve, poor fit] and the Potency [9] was “inactive”.
For Oc1ccc2c(c1)OCO2, the ratio activity, negative = inhibition [4] was inconclusive: -24.6% and the activity change, negative = inhibition [6] was inconclusive: 23.7%.
With CCCC(=O)C(C)=O the Potency [4] was “inactive” and the activity change, negative = inhibition [6] was inconclusive: 20%.
With COc1cc(O)c(C(=O)c2ccccc2)cc1S(=O)(=O)O the Potency [4] was inconclusive: 48.4 µM [activator, partial curve, poor fit], the Potency [13] was inconclusive: 0.684 µM [fluorescent, full curve, poor fit] and the activity change, negative = inhibition [13] was inconclusive: 11%. For the same molecule, the Potency [8] was inconclusive: 24.3 µM [rising, partial curve, poor fit] and the activity change, negative = inhibition [6] was inconclusive: -4.9% [at 78.8 µM].
In the case of O=C1NS(=O)(=O)c2ccccc21, the Potency [1] is reported as “inactive” and the activation [2] is reported as inconclusive: 8.58% and inconclusive: 26.6%.
In the case of C=C1C[C@@]23CC[C@H]4[C@@](C)(CCC[C@@]4(C)C(=O)O[C@@H]4O[C@H](CO)[C@@H](O)[C@H](O)[C@H]4O)[C@@H]2CC[C@]1(O[C@@H]1O[C@H](CO)[C@@H](O)[C@H](O[C@@H]2O[C@H](CO)[C@@H](O)[C@H](O)[C@H]2O)[C@H]1O[C@@H]1O[C@H](CO)[C@@H](O)[C@H](O)[C@H]1O)C3, the ratio activity, negative = inhibition [4] is reported as inconclusive: -7.08% and the Potency [12] is reported as “inactive”.
For CO[C@]1(NC(=O)CSC(F)F)C(=O)N2C(C(=O)O)=C(CSc3nnnn3CCO)CO[C@H]21, the Potency [4] was “inactive”, the Potency [8] was “inactive” and the Potency [6] was “inactive”.
